This is an account of results in US20220049021A1 (Gilead, published 2022).

In experiment [1] the target is T1, human FLT3 on AML5 cells (human, UniProt P36888 27-993).
T1 sequence (looked up): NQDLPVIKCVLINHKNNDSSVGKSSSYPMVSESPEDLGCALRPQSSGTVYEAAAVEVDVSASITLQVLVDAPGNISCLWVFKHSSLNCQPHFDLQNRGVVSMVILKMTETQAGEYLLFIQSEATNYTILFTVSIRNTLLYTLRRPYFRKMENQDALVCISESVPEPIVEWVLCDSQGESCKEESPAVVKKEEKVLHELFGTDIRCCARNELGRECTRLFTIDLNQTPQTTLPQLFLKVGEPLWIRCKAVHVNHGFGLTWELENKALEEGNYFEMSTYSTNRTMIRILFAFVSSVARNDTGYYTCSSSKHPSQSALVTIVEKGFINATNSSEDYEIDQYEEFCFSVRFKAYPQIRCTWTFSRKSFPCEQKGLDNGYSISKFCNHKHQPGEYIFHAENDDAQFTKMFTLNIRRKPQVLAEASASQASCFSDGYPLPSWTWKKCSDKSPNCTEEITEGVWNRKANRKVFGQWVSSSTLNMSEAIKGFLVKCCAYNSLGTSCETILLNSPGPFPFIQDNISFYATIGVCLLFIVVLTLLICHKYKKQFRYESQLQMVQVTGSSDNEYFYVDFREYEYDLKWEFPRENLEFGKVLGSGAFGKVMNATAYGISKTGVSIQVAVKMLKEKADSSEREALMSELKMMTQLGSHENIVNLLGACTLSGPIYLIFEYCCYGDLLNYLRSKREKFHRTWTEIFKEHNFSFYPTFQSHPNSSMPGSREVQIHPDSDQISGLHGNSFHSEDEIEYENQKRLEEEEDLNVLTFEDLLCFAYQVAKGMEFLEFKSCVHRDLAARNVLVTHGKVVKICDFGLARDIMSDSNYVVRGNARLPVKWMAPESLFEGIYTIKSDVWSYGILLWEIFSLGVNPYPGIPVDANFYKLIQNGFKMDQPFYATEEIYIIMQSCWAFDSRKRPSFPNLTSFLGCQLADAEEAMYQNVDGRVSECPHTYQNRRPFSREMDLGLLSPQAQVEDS
Put plainly: cell-based or functional assay.

Experiment [2] has as its target T2, recombinant human C1q protein (Fitzgerald) (human, UniProt P02745; P02746; P02747, limits assumed).
T2 construct: also called human recombinant complement protein, C1q
T2 sequence (P02745 23-245 limits assumed, chain 1 of 3): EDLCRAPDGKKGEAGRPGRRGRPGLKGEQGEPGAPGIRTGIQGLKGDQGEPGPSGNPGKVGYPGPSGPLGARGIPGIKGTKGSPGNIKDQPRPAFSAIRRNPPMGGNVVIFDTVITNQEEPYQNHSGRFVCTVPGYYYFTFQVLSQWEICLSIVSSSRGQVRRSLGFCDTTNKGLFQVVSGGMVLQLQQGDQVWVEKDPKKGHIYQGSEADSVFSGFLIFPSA
T2 sequence (P02746 28-253 limits assumed, chain 2 of 3, further chain): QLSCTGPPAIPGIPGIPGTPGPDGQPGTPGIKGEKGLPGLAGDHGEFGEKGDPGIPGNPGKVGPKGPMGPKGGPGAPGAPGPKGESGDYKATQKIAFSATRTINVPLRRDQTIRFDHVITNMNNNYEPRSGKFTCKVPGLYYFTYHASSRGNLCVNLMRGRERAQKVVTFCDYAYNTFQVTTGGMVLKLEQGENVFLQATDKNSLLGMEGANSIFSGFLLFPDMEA
T2 sequence (P02747 29-245 limits assumed, chain 3 of 3, further chain): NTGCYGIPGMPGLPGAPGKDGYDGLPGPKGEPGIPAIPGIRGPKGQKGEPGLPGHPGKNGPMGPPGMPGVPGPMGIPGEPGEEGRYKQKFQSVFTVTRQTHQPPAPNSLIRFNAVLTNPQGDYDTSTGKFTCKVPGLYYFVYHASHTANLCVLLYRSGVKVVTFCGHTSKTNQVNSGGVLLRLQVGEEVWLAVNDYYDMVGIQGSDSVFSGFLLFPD
Put plainly: ELISA; test protein immobilised in serial dilution, recombinant human C1q added, anti-C1q-HRP. (In an ELISA, binding on a coated surface is turned into a signal by an enzyme label.)

Experiment [3] deals with T1, human FLT3 on AML5 cells. In words: cell-based or functional assay. The source holds these as a separate data set.

Where two headings read alike, the source gives them in different places.

B1: human FLT3-ligand human IgG4 (S228P/L235E) fusion protein (SEQ ID NO:3) (Fc fusion)
chain: TQDCSFQHSPISSDFAVKIRELSDYLLQDYPVTVASNLQDEELCGGLWRLVLAQRWMERLKTVAGSKMQGLLERVNTEIHFVTKCAFQPPPSCLRFVQTNISRLLQETSEQLVALKPWITRQNFSRCLELQCQPDSSTLPPPWSPRPLEATAPTAPQ[in this place human IgG4 Fc with changes]
Turning to B1, in the experiment with human FLT3 on AML5 cells [1], the “EC50 (nM), AML5 Proliferation Assay” value worked out at 0.088 nM.

B2: human FLT3-ligand human IgG4 (S228P/F234A/L235A) fusion protein (SEQ ID NO:4) (Fc fusion)
chain: TQDCSFQHSPISSDFAVKIRELSDYLLQDYPVTVASNLQDEELCGGLWRLVLAQRWMERLKTVAGSKMQGLLERVNTEIHFVTKCAFQPPPSCLRFVQTNISRLLQETSEQLVALKPWITRQNFSRCLELQCQPDSSTLPPPWSPRPLEATAPTAPQ[in this place human IgG4 Fc with S228P F234A L235A (EU numbers)]
notes: also called FLT3L ECD-hG4 S228P/F234A/L235A
As for B2, in the experiment with human FLT3 on AML5 cells [1], the “EC50 (nM), AML5 Proliferation Assay” value is 0.073 nM. For the same molecule, in experiment [2], the binding result is given as “no binding (tested: 94 nM (top of the titration))”.

B3: human FLT3-ligand (Δ10 amino acid) human IgG4 (S228P/F234A/L235A) fusion protein (SEQ ID NO:8) (Fc fusion)
chain: TQDCSFQHSPISSDFAVKIRELSDYLLQDYPVTVASNLQDEELCGGLWRLVLAQRWMERLKTVAGSKMQGLLERVNTEIHFVTKCAFQPPPSCLRFVQTNISRLLQETSEQLVALKPWITRQNFSRCLELQCQPDSSTLPPPWSPRP[in this place human IgG4 Fc with S228P F234A L235A (EU numbers)]
Regarding B3, the “EC50 (nM), AML5 Proliferation Assay” value with human FLT3 on AML5 cells [1] was found to be 0.075 nM. Besides, the binding result in experiment [2] is “no binding (tested: 94 nM (top of the titration))”.

B4: human FLT3-ligand (Δ5 amino acid) human IgG4 (S228P/F234A/L235A) fusion protein (SEQ ID NO:6) (Fc fusion)
chain: TQDCSFQHSPISSDFAVKIRELSDYLLQDYPVTVASNLQDEELCGGLWRLVLAQRWMERLKTVAGSKMQGLLERVNTEIHFVTKCAFQPPPSCLRFVQTNISRLLQETSEQLVALKPWITRQNFSRCLELQCQPDSSTLPPPWSPRPLEATA[in this place human IgG4 Fc with S228P F234A L235A (EU numbers)]
notes: also called FLT3L (Δ C-term 5aa (PTAPQ))-hG4 S228P/F234A/L235A
Turning to B4, the “EC50 (nM), AML5 Proliferation Assay” value with human FLT3 on AML5 cells [1] came out at 0.078 nM; in the experiment with human FLT3 on AML5 cells [3], 0.048 nM. The binding result in experiment [2] is “no binding (tested: 94 nM (top of the titration))”.
